# In the supplement of paper PMC8728848:
# The list shows a part of the results.
# What was measured:
# Test in all cases: glycan array binding signal (z-score within array); higher = stronger binding
# Conditions in all cases: glycan notation: IUPAC condensed, linker removed
# [1] = molecular target: GlcNAc(b1-3)Gal(b1-3)GalNAc
# Outline: (§1)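 Glycan array data were curated from 3228 arrays in the Consortium for Functional Glycomics database and kept only where the protein sequence was available. Glycan names were converted to IUPAC-condensed notation, and columns mapping to the same glycan were averaged. The binding signal is a within-array Z-score, averaged across arrays of the same protein sequence at different concentrations or buffers and across linkers. Negative Z-scores can be read as non-binding.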
# GlcNAc(b1-3)Gal(b1-4)Glc = molecular target: GlcNAc(b1-3)Gal(b1-4)Glc
# Outline: as §1
# [2] = molecular target: GlcNAc(b1-3)Gal(b1-4)GlcNAc
# Outline: as §1
# [3] = molecular target: GlcNAc(b1-3)Gal(b1-4)GlcNAc(b1-2)Man(a1-3)[GlcNAc(b1-3)Gal(b1-4)GlcNAc(b1-2)Man(a1-6)]Man(b1-4)GlcNAc(b1-4)GlcNAc
# Outline: as §1
# [4] = molecular target: GlcNAc(b1-3)Gal(b1-4)GlcNAc(b1-2)Man(a1-3)[GlcNAc(b1-3)Gal(b1-4)GlcNAc(b1-2)Man(a1-6)]Man(b1-4)GlcNAc(b1-4)[Fuc(a1-6)]GlcNAc
# Outline: as §1
# [5] = molecular target: GlcNAc(b1-3)Gal(b1-4)GlcNAc(b1-2)[GlcNAc(b1-3)Gal(b1-4)GlcNAc(b1-6)]Man(a1-6)[GlcNAc(b1-3)Gal(b1-4)GlcNAc(b1-2)Man(a1-3)]Man(b1-4)GlcNAc(b1-4)GlcNAc
# Outline: as §1
# [6] = molecular target: GlcNAc(b1-3)Gal(b1-4)GlcNAc(b1-3)Gal(b1-4)GlcNAc
# Outline: as §1
# [7] = molecular target: GlcNAc(b1-3)Gal(b1-4)GlcNAc(b1-3)Gal(b1-4)GlcNAc(b1-2)Man(a1-3)[GlcNAc(b1-3)Gal(b1-4)GlcNAc(b1-3)Gal(b1-4)GlcNAc(b1-2)Man(a1-6)]Man(b1-4)GlcNAc(b1-4)GlcNAc
# Outline: as §1
# [8] = molecular target: GlcNAc(b1-3)Gal(b1-4)GlcNAc(b1-3)Gal(b1-4)GlcNAc(b1-2)Man(a1-3)[GlcNAc(b1-3)Gal(b1-4)GlcNAc(b1-3)Gal(b1-4)GlcNAc(b1-2)Man(a1-6)]Man(b1-4)GlcNAc(b1-4)[Fuc(a1-6)]GlcNAc
# Outline: as §1
# [9] = molecular target: GlcNAc(b1-3)Gal(b1-4)GlcNAc(b1-3)Gal(b1-4)GlcNAc(b1-2)[GlcNAc(b1-3)Gal(b1-4)GlcNAc(b1-3)Gal(b1-4)GlcNAc(b1-6)]Man(a1-6)[GlcNAc(b1-3)Gal(b1-4)GlcNAc(b1-3)Gal(b1-4)GlcNAc(b1-2)Man(a1-3)]Man(b1-4)GlcNAc(b1-4)[Fuc(a1-6)]GlcNAc
# Outline: as §1
# [10] = molecular target: GlcNAc(b1-3)Gal(b1-4)GlcNAc(b1-3)Gal(b1-4)GlcNAc(b1-3)Gal(b1-4)GlcNAc(b1-2)Man(a1-3)[GlcNAc(b1-3)Gal(b1-4)GlcNAc(b1-3)Gal(b1-4)GlcNAc(b1-3)Gal(b1-4)GlcNAc(b1-2)Man(a1-6)]Man(b1-4)GlcNAc(b1-4)GlcNAc
# Outline: as §1
# [11] = molecular target: GlcNAc(b1-3)Gal(b1-4)GlcNAc(b1-3)Gal(b1-4)GlcNAc(b1-3)Gal(b1-4)GlcNAc(b1-2)Man(a1-3)[GlcNAc(b1-3)Gal(b1-4)GlcNAc(b1-3)Gal(b1-4)GlcNAc(b1-3)Gal(b1-4)GlcNAc(b1-2)Man(a1-6)]Man(b1-4)GlcNAc(b1-4)[Fuc(a1-6)]GlcNAc
# Outline: as §1
# [12] = molecular target: GlcNAc(b1-3)Gal(b1-4)GlcNAc(b1-3)Gal(b1-4)GlcNAc(b1-3)Gal(b1-4)GlcNAc(b1-2)[GlcNAc(b1-3)Gal(b1-4)GlcNAc(b1-3)Gal(b1-4)GlcNAc(b1-3)Gal(b1-4)GlcNAc(b1-6)]Man(a1-6)[GlcNAc(b1-3)Gal(b1-4)GlcNAc(b1-3)Gal(b1-4)GlcNAc(b1-3)Gal(b1-4)GlcNAc(b1-2)Man(a1-3)]Man(b1-4)GlcNAc(b1-4)[Fuc(a1-6)]GlcNAc
# Outline: as §1
# [13] = molecular target: GlcNAc(b1-3)Gal(b1-4)GlcNAc(b1-3)Gal(b1-4)GlcNAc(b1-3)Gal(b1-4)GlcNAc(b1-3)Gal(b1-4)GlcNAc(b1-2)Man(a1-3)[GlcNAc(b1-3)Gal(b1-4)GlcNAc(b1-3)Gal(b1-4)GlcNAc(b1-3)Gal(b1-4)GlcNAc(b1-3)Gal(b1-4)GlcNAc(b1-2)Man(a1-6)]Man(b1-4)GlcNAc(b1-4)GlcNAc
# Outline: as §1
# [14] = molecular target: GlcNAc(b1-3)Gal(b1-4)GlcNAc(b1-3)Gal(b1-4)GlcNAc(b1-3)Gal(b1-4)GlcNAc(b1-3)Gal(b1-4)GlcNAc(b1-2)Man(a1-3)[GlcNAc(b1-3)Gal(b1-4)GlcNAc(b1-3)Gal(b1-4)GlcNAc(b1-3)Gal(b1-4)GlcNAc(b1-3)Gal(b1-4)GlcNAc(b1-2)Man(a1-6)]Man(b1-4)GlcNAc(b1-4)[Fuc(a1-6)]GlcNAc
# Outline: as §1
# [15] = molecular target: GlcNAc(b1-3)Gal(b1-4)GlcNAc(b1-3)Gal(b1-4)GlcNAc(b1-3)Gal(b1-4)GlcNAc(b1-3)Gal(b1-4)GlcNAc(b1-2)[GlcNAc(b1-3)Gal(b1-4)GlcNAc(b1-3)Gal(b1-4)GlcNAc(b1-3)Gal(b1-4)GlcNAc(b1-3)Gal(b1-4)GlcNAc(b1-6)]Man(a1-6)[GlcNAc(b1-3)Gal(b1-4)GlcNAc(b1-3)Gal(b1-4)GlcNAc(b1-3)Gal(b1-4)GlcNAc(b1-3)Gal(b1-4)GlcNAc(b1-2)Man(a1-3)]Man(b1-4)GlcNAc(b1-4)[Fuc(a1-6)]GlcNAc
# Outline: as §1
# [16] = molecular target: GlcNAc(b1-3)Gal(b1-4)GlcNAc(b1-3)Gal(b1-4)GlcNAc(b1-3)GalNAc
# Outline: as §1
# [17] = molecular target: GlcNAc(b1-3)Gal(b1-4)GlcNAc(b1-3)GalNAc
# Outline: as §1
# [18] = molecular target: GlcNAc(b1-3)Gal(b1-4)GlcNAc(b1-3)[GlcNAc(b1-3)Gal(b1-4)GlcNAc(b1-3)]GalNAc
# Outline: as §1
# [19] = molecular target: GlcNAc(b1-3)Gal(b1-4)GlcNAc(b1-6)[Gal(b1-3)]GalNAc
# Outline: as §1
# [20] = molecular target: GlcNAc(b1-3)Gal(b1-4)GlcNAc(b1-6)[GlcNAc(b1-3)Gal(b1-3)]GalNAc
# Outline: as §1
# [21] = molecular target: GlcNAc(b1-3)Gal(b1-4)GlcNAc(b1-6)[GlcNAc(b1-3)]Gal(b1-4)GlcNAc
# Outline: as §1
# GlcNAc(b1-3)GalNAc = molecular target: GlcNAc(b1-3)GalNAc
# Outline: as §1
# GlcNAc(b1-3)Man = molecular target: GlcNAc(b1-3)Man
# Outline: as §1
# [22] = molecular target: GlcNAc(b1-3)[GlcNAc(b1-4)][GlcNAc(b1-6)]GlcNAc
# Outline: as §1
# [23] = molecular target: GlcNAc(b1-3)[GlcNAc(b1-6)]Gal(b1-4)GlcNAc
# Outline: as §1
# [24] = molecular target: GlcNAc(b1-3)[GlcNAc(b1-6)]GalNAc
# Outline: as §1
# [25] = molecular target: GlcNAc(b1-4)Gal(b1-4)GlcNAc
# Outline: as §1
# GlcNAc(b1-4)GlcNAc = molecular target: GlcNAc(b1-4)GlcNAc
# Outline: as §1
# [26] = molecular target: GlcNAc(b1-4)GlcNAc(b1-4)GlcNAc
# Outline: as §1
# [27] = molecular target: GlcNAc(b1-4)GlcNAc(b1-4)GlcNAc(b1-4)GlcNAc(b1-4)GlcNAc
# Outline: as §1
# [28] = molecular target: GlcNAc(b1-4)GlcNAc(b1-4)GlcNAc(b1-4)GlcNAc(b1-4)GlcNAc(b1-4)GlcNAc
# Outline: as §1
# [29] = molecular target: GlcNAc(b1-4)[GlcNAc(b1-6)]GalNAc
# Outline: as §1
# [30] = molecular target: GlcNAc(b1-6)Gal(b1-4)GlcNAc
# Outline: as §1
# GlcNAc(b1-6)GalNAc = molecular target: GlcNAc(b1-6)GalNAc
# Outline: as §1
# [31] = molecular target: GlcNAc6S(b1-3)Gal(b1-4)GlcNAc
# Outline: as §1
# Kdn(a2-3)Gal(b1-3)GalNAc = molecular target: Kdn(a2-3)Gal(b1-3)GalNAc
# Outline: as §1
# Kdn(a2-3)Gal(b1-3)GlcNAc = molecular target: Kdn(a2-3)Gal(b1-3)GlcNAc
# Outline: as §1
# Kdn(a2-3)Gal(b1-4)Glc = molecular target: Kdn(a2-3)Gal(b1-4)Glc
# Outline: as §1
# Kdn(a2-3)Gal(b1-4)GlcNAc = molecular target: Kdn(a2-3)Gal(b1-4)GlcNAc
# Outline: as §1
# [32] = molecular target: Kdn(a2-3)Gal(b1-4)[Fuc(a1-3)]GlcNAc
# Outline: as §1
# Kdn(a2-6)Gal(b1-4)GlcNAc = molecular target: Kdn(a2-6)Gal(b1-4)GlcNAc
# Outline: as §1
# [33] = molecular target: Man(a1-2)Man(a1-2)Man(a1-3)Man
# Outline: as §1
# [34] = molecular target: Man(a1-2)Man(a1-2)Man(a1-6)[Man(a1-3)]Man
# Outline: as §1
# Man(a1-2)Man(a1-3)Man = molecular target: Man(a1-2)Man(a1-3)Man
# Outline: as §1
binder,measurement,setting,value
APVPVTKLVCDGDTYKCTAYLDFGDGRWVAQWDTNVFHTG [PhoSpL (Pholiota squarrosa)],glycan array binding signal (z-score),[1],-0.211
same,glycan array binding signal (z-score),GlcNAc(b1-3)Gal(b1-4)Glc,-0.305
same,glycan array binding signal (z-score),[2],-0.32
same,glycan array binding signal (z-score),[3],0.18
same,glycan array binding signal (z-score),[4],2.47
same,glycan array binding signal (z-score),[5],-0.099
same,glycan array binding signal (z-score),[6],-0.294
same,glycan array binding signal (z-score),[7],0.126
same,glycan array binding signal (z-score),[8],1.44
same,glycan array binding signal (z-score),[9],0.584
same,glycan array binding signal (z-score),[10],-0.182
same,glycan array binding signal (z-score),[11],0.9
same,glycan array binding signal (z-score),[12],0.229
same,glycan array binding signal (z-score),[13],-0.144
same,glycan array binding signal (z-score),[14],0.617
same,glycan array binding signal (z-score),[15],0.7
same,glycan array binding signal (z-score),[16],0.187
same,glycan array binding signal (z-score),[17],0.385
same,glycan array binding signal (z-score),[18],-0.273
same,glycan array binding signal (z-score),[19],0.53
same,glycan array binding signal (z-score),[20],-0.107
same,glycan array binding signal (z-score),[21],-0.337
same,glycan array binding signal (z-score),GlcNAc(b1-3)GalNAc,-0.205
same,glycan array binding signal (z-score),GlcNAc(b1-3)Man,0.405
same,glycan array binding signal (z-score),[22],-0.681
same,glycan array binding signal (z-score),[23],-0.249
same,glycan array binding signal (z-score),[24],-0.392
same,glycan array binding signal (z-score),[25],-0.264
same,glycan array binding signal (z-score),GlcNAc(b1-4)GlcNAc,-0.218
same,glycan array binding signal (z-score),[26],-0.07
same,glycan array binding signal (z-score),[27],0.119
same,glycan array binding signal (z-score),[28],-0.168
same,glycan array binding signal (z-score),[29],-0.295
same,glycan array binding signal (z-score),[30],-0.222
same,glycan array binding signal (z-score),GlcNAc(b1-6)GalNAc,0.176
same,glycan array binding signal (z-score),[31],-0.056
same,glycan array binding signal (z-score),Kdn(a2-3)Gal(b1-3)GalNAc,-0.679
same,glycan array binding signal (z-score),Kdn(a2-3)Gal(b1-3)GlcNAc,0.007
same,glycan array binding signal (z-score),Kdn(a2-3)Gal(b1-4)Glc,-0.2
same,glycan array binding signal (z-score),Kdn(a2-3)Gal(b1-4)GlcNAc,-0.163
same,glycan array binding signal (z-score),[32],-0.393
same,glycan array binding signal (z-score),Kdn(a2-6)Gal(b1-4)GlcNAc,-0.023
same,glycan array binding signal (z-score),[33],-0.197
same,glycan array binding signal (z-score),[34],-0.173
same,glycan array binding signal (z-score),Man(a1-2)Man(a1-3)Man,-0.372
